Laboratory results from publication PMC12820563, “FoxP3 forms a head-to-head dimer in vivo and stabilizes its multimerization on adjacent microsatellites”.
The list shows a part of the results.

Molecular target: T1, MBP-FoxP1dN (Mus musculus, UniProt P58462 326-579)
T1 sequence: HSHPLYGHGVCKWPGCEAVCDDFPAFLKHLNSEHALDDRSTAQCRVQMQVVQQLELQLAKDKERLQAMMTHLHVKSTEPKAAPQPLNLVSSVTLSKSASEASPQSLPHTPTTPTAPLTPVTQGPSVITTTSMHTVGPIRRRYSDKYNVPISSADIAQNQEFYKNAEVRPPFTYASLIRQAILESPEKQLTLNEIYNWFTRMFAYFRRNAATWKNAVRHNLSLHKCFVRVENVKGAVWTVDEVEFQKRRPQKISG
Experiment: PD-seq (MBP pull-down with sequencing); 20 mM Tris-HCl pH 7.5, 100 mM NaCl, 1.5 mM MgCl2, 0.4 uM protein, 0.1 uM dsDNA library, 30 min, room temperature, amylose pull-down; high values mean tight binding
Conditions: protein: recombinant; tags: His6-MBP; chain copies: 2; dsDNA, one strand shown
In short: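 Mouse FoxP3 or FoxP1 fragment lacking the N-terminus, His6-MBP-tagged and expressed in E. coli, was incubated at 0.4 µM with 0.1 µM Klenow-filled degenerate double-stranded DNA library for 30 min at room temperature in Tris pH 7.5 buffer with NaCl and MgCl2. Complexes captured on amylose resin were washed three times and their DNA sequenced on Illumina. Binding is reads-per-million enrichment of pull-down over input, replicates pooled.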

Sequence | binding signal
GATGATTGTTCTCCCAGCTGATGAATTAGGGGCATCGAGTAAACAAATTTTCCTAATCTTTCTGTTCAAGCGCCATCTAC | 1 RPM ratio (pull-down/input)
GATGATTGTTCTCCCAGCTGATGAATTTTAGTTGTCGAGTAAACAAATTTTCCTAATCTTTCTGTTCAAGCGCCATCTAC | 1.52 RPM ratio (pull-down/input)
GATGATTGTTCTCCCAGCTGATGAATTCCCGAAATCGAGTAAACAAATTTTCCTAATCTTTCTGTTCAAGCGCCATCTAC | 0.952 RPM ratio (pull-down/input)
GATGATTGTTCTCCCAGCTGATGAATTCAATCAATCGAGTAAACAAATTTTCCTAATCTTTCTGTTCAAGCGCCATCTAC | 1.02 RPM ratio (pull-down/input)
GATGATTGTTCTCCCAGCTGATGAATTCCCTATCTCGAGTAAACAAATTTTCCTAATCTTTCTGTTCAAGCGCCATCTAC | 0.782 RPM ratio (pull-down/input)
GATGATTGTTCTCCCAGCTGATGAATTTTTGAACTCGAGTAAACAAATTTTCCTAATCTTTCTGTTCAAGCGCCATCTAC | 0.882 RPM ratio (pull-down/input)
GATGATTGTTCTCCCAGCTGATGAATTTTGCCAATCGAGTAAACAAATTTTCCTAATCTTTCTGTTCAAGCGCCATCTAC | 1.06 RPM ratio (pull-down/input)
GATGATTGTTCTCCCAGCTGATGAATTGTCACTTTCGAGTAAACAAATTTTCCTAATCTTTCTGTTCAAGCGCCATCTAC | 1.04 RPM ratio (pull-down/input)
GATGATTGTTCTCCCAGCTGATGAATTGCAAAGATCGAGTAAACAAATTTTCCTAATCTTTCTGTTCAAGCGCCATCTAC | 1.24 RPM ratio (pull-down/input)
GATGATTGTTCTCCCAGCTGATGAATTCCCTCCCTCGAGTAAACAAATTTTCCTAATCTTTCTGTTCAAGCGCCATCTAC | 0.787 RPM ratio (pull-down/input)
GATGATTGTTCTCCCAGCTGATGAATTCAAGATGTCGAGTAAACAAATTTTCCTAATCTTTCTGTTCAAGCGCCATCTAC | 0.87 RPM ratio (pull-down/input)
GATGATTGTTCTCCCAGCTGATGAATTACGTCGATCGAGTAAACAAATTTTCCTAATCTTTCTGTTCAAGCGCCATCTAC | 1.04 RPM ratio (pull-down/input)
GATGATTGTTCTCCCAGCTGATGAATTGCAGGGCTCGAGTAAACAAATTTTCCTAATCTTTCTGTTCAAGCGCCATCTAC | 0.88 RPM ratio (pull-down/input)
GATGATTGTTCTCCCAGCTGATGAATTTAACTTATCGAGTAAACAAATTTTCCTAATCTTTCTGTTCAAGCGCCATCTAC | 0.953 RPM ratio (pull-down/input)
GATGATTGTTCTCCCAGCTGATGAATTGCCTCAGTCGAGTAAACAAATTTTCCTAATCTTTCTGTTCAAGCGCCATCTAC | 0.999 RPM ratio (pull-down/input)
GATGATTGTTCTCCCAGCTGATGAATTAGCAGTCTCGAGTAAACAAATTTTCCTAATCTTTCTGTTCAAGCGCCATCTAC | 0.877 RPM ratio (pull-down/input)
GATGATTGTTCTCCCAGCTGATGAATTGCCCTAATCGAGTAAACAAATTTTCCTAATCTTTCTGTTCAAGCGCCATCTAC | 1.03 RPM ratio (pull-down/input)
GATGATTGTTCTCCCAGCTGATGAATTCTAAGCCTCGAGTAAACAAATTTTCCTAATCTTTCTGTTCAAGCGCCATCTAC | 0.808 RPM ratio (pull-down/input)
GATGATTGTTCTCCCAGCTGATGAATTACCGAATTCGAGTAAACAAATTTTCCTAATCTTTCTGTTCAAGCGCCATCTAC | 1.04 RPM ratio (pull-down/input)
GATGATTGTTCTCCCAGCTGATGAATTGAGACCGTCGAGTAAACAAATTTTCCTAATCTTTCTGTTCAAGCGCCATCTAC | 0.852 RPM ratio (pull-down/input)
GATGATTGTTCTCCCAGCTGATGAATTTCGTATGTCGAGTAAACAAATTTTCCTAATCTTTCTGTTCAAGCGCCATCTAC | 0.993 RPM ratio (pull-down/input)

Sequence | binding signal
GATGATTGTTCTCCCAGCTGATGAATTCCCCAATTCGAGTAAACAAATTTTCCTAATCTTTCTGTTCAAGCGCCATCTAC | 0.882 RPM ratio (pull-down/input)
GATGATTGTTCTCCCAGCTGATGAATTAATACGATCGAGTAAACAAATTTTCCTAATCTTTCTGTTCAAGCGCCATCTAC | 1.08 RPM ratio (pull-down/input)
GATGATTGTTCTCCCAGCTGATGAATTACATGAATCGAGTAAACAAATTTTCCTAATCTTTCTGTTCAAGCGCCATCTAC | 1.4 RPM ratio (pull-down/input)
GATGATTGTTCTCCCAGCTGATGAATTTTATCGGTCGAGTAAACAAATTTTCCTAATCTTTCTGTTCAAGCGCCATCTAC | 0.946 RPM ratio (pull-down/input)
GATGATTGTTCTCCCAGCTGATGAATTCCGTTACTCGAGTAAACAAATTTTCCTAATCTTTCTGTTCAAGCGCCATCTAC | 0.912 RPM ratio (pull-down/input)
GATGATTGTTCTCCCAGCTGATGAATTACACCAGTCGAGTAAACAAATTTTCCTAATCTTTCTGTTCAAGCGCCATCTAC | 1.06 RPM ratio (pull-down/input)
GATGATTGTTCTCCCAGCTGATGAATTGTAAATGTCGAGTAAACAAATTTTCCTAATCTTTCTGTTCAAGCGCCATCTAC | 1.2 RPM ratio (pull-down/input)
GATGATTGTTCTCCCAGCTGATGAATTTTCACCCTCGAGTAAACAAATTTTCCTAATCTTTCTGTTCAAGCGCCATCTAC | 0.852 RPM ratio (pull-down/input)
GATGATTGTTCTCCCAGCTGATGAATTCTCTTCGTCGAGTAAACAAATTTTCCTAATCTTTCTGTTCAAGCGCCATCTAC | 0.808 RPM ratio (pull-down/input)
GATGATTGTTCTCCCAGCTGATGAATTGCGACGGTCGAGTAAACAAATTTTCCTAATCTTTCTGTTCAAGCGCCATCTAC | 0.983 RPM ratio (pull-down/input)
GATGATTGTTCTCCCAGCTGATGAATTACGGCCTTCGAGTAAACAAATTTTCCTAATCTTTCTGTTCAAGCGCCATCTAC | 0.977 RPM ratio (pull-down/input)
GATGATTGTTCTCCCAGCTGATGAATTAACGCTCTCGAGTAAACAAATTTTCCTAATCTTTCTGTTCAAGCGCCATCTAC | 0.86 RPM ratio (pull-down/input)
GATGATTGTTCTCCCAGCTGATGAATTGGCATTCTCGAGTAAACAAATTTTCCTAATCTTTCTGTTCAAGCGCCATCTAC | 1.07 RPM ratio (pull-down/input)
GATGATTGTTCTCCCAGCTGATGAATTACCACACTCGAGTAAACAAATTTTCCTAATCTTTCTGTTCAAGCGCCATCTAC | 1.07 RPM ratio (pull-down/input)
GATGATTGTTCTCCCAGCTGATGAATTTATAAAGTCGAGTAAACAAATTTTCCTAATCTTTCTGTTCAAGCGCCATCTAC | 1.14 RPM ratio (pull-down/input)
GATGATTGTTCTCCCAGCTGATGAATTTCCCGATTCGAGTAAACAAATTTTCCTAATCTTTCTGTTCAAGCGCCATCTAC | 0.845 RPM ratio (pull-down/input)
GATGATTGTTCTCCCAGCTGATGAATTTGTCTGATCGAGTAAACAAATTTTCCTAATCTTTCTGTTCAAGCGCCATCTAC | 1.04 RPM ratio (pull-down/input)
GATGATTGTTCTCCCAGCTGATGAATTCAATGAATCGAGTAAACAAATTTTCCTAATCTTTCTGTTCAAGCGCCATCTAC | 0.93 RPM ratio (pull-down/input)
GATGATTGTTCTCCCAGCTGATGAATTCCAGTGTTCGAGTAAACAAATTTTCCTAATCTTTCTGTTCAAGCGCCATCTAC | 0.961 RPM ratio (pull-down/input)
GATGATTGTTCTCCCAGCTGATGAATTCGAACCATCGAGTAAACAAATTTTCCTAATCTTTCTGTTCAAGCGCCATCTAC | 0.867 RPM ratio (pull-down/input)
GATGATTGTTCTCCCAGCTGATGAATTTGCTCATTCGAGTAAACAAATTTTCCTAATCTTTCTGTTCAAGCGCCATCTAC | 0.978 RPM ratio (pull-down/input)

Sequence | binding signal
GATGATTGTTCTCCCAGCTGATGAATTAACAGGGTCGAGTAAACAAATTTTCCTAATCTTTCTGTTCAAGCGCCATCTAC | 0.876 RPM ratio (pull-down/input)
GATGATTGTTCTCCCAGCTGATGAATTGCAGGTATCGAGTAAACAAATTTTCCTAATCTTTCTGTTCAAGCGCCATCTAC | 1.22 RPM ratio (pull-down/input)
GATGATTGTTCTCCCAGCTGATGAATTTGCACCATCGAGTAAACAAATTTTCCTAATCTTTCTGTTCAAGCGCCATCTAC | 1.05 RPM ratio (pull-down/input)
GATGATTGTTCTCCCAGCTGATGAATTCATTAGCTCGAGTAAACAAATTTTCCTAATCTTTCTGTTCAAGCGCCATCTAC | 0.842 RPM ratio (pull-down/input)
GATGATTGTTCTCCCAGCTGATGAATTTGTCCTCTCGAGTAAACAAATTTTCCTAATCTTTCTGTTCAAGCGCCATCTAC | 1.07 RPM ratio (pull-down/input)
GATGATTGTTCTCCCAGCTGATGAATTGTTGGAGTCGAGTAAACAAATTTTCCTAATCTTTCTGTTCAAGCGCCATCTAC | 0.962 RPM ratio (pull-down/input)
GATGATTGTTCTCCCAGCTGATGAATTCAATTTCTCGAGTAAACAAATTTTCCTAATCTTTCTGTTCAAGCGCCATCTAC | 0.927 RPM ratio (pull-down/input)
GATGATTGTTCTCCCAGCTGATGAATTGCACTTCTCGAGTAAACAAATTTTCCTAATCTTTCTGTTCAAGCGCCATCTAC | 1.35 RPM ratio (pull-down/input)
GATGATTGTTCTCCCAGCTGATGAATTAGGGAGGTCGAGTAAACAAATTTTCCTAATCTTTCTGTTCAAGCGCCATCTAC | 0.833 RPM ratio (pull-down/input)
GATGATTGTTCTCCCAGCTGATGAATTCGTCACATCGAGTAAACAAATTTTCCTAATCTTTCTGTTCAAGCGCCATCTAC | 0.945 RPM ratio (pull-down/input)
GATGATTGTTCTCCCAGCTGATGAATTTGACCCATCGAGTAAACAAATTTTCCTAATCTTTCTGTTCAAGCGCCATCTAC | 0.851 RPM ratio (pull-down/input)
GATGATTGTTCTCCCAGCTGATGAATTACGCCTGTCGAGTAAACAAATTTTCCTAATCTTTCTGTTCAAGCGCCATCTAC | 0.963 RPM ratio (pull-down/input)
GATGATTGTTCTCCCAGCTGATGAATTGTGGGTTTCGAGTAAACAAATTTTCCTAATCTTTCTGTTCAAGCGCCATCTAC | 1.05 RPM ratio (pull-down/input)
GATGATTGTTCTCCCAGCTGATGAATTGTCGTCCTCGAGTAAACAAATTTTCCTAATCTTTCTGTTCAAGCGCCATCTAC | 0.988 RPM ratio (pull-down/input)
GATGATTGTTCTCCCAGCTGATGAATTGAGCCCCTCGAGTAAACAAATTTTCCTAATCTTTCTGTTCAAGCGCCATCTAC | 0.738 RPM ratio (pull-down/input)
GATGATTGTTCTCCCAGCTGATGAATTTGCTGAATCGAGTAAACAAATTTTCCTAATCTTTCTGTTCAAGCGCCATCTAC | 0.998 RPM ratio (pull-down/input)
GATGATTGTTCTCCCAGCTGATGAATTAACGAGATCGAGTAAACAAATTTTCCTAATCTTTCTGTTCAAGCGCCATCTAC | 0.923 RPM ratio (pull-down/input)
GATGATTGTTCTCCCAGCTGATGAATTCGGGTGTTCGAGTAAACAAATTTTCCTAATCTTTCTGTTCAAGCGCCATCTAC | 0.849 RPM ratio (pull-down/input)
GATGATTGTTCTCCCAGCTGATGAATTTTCGAGTTCGAGTAAACAAATTTTCCTAATCTTTCTGTTCAAGCGCCATCTAC | 0.959 RPM ratio (pull-down/input)
GATGATTGTTCTCCCAGCTGATGAATTTCCGGTGTCGAGTAAACAAATTTTCCTAATCTTTCTGTTCAAGCGCCATCTAC | 0.877 RPM ratio (pull-down/input)
GATGATTGTTCTCCCAGCTGATGAATTGTCCGGATCGAGTAAACAAATTTTCCTAATCTTTCTGTTCAAGCGCCATCTAC | 0.87 RPM ratio (pull-down/input)
